PubChem BioAssay AID1466 (National Center for Advancing Translational Sciences (NCATS), 2008)
Among all 200,000 compounds or so, about 10 (0.005%) were called active. The shares of active, inactive and inconclusive entries below differ from those in the screen. Calls come from the whole dose curve; as a rule, active = well fitted inhibition curve with a large enough effect; inconclusive = small, poorly fitted or top-dose-only effect, or effect the other way, or another doubt; inactive = no such curve, though single readings can be large or run the other way. Where the call is inconclusive, the potency comes from a doubtful curve fit.

Molecular target: Lysosomal alpha-glucosidase (Homo sapiens) (UniProt P10253)
Assay: qHTS Assay for Inhibitors of Human alpha-Glucosidase as a Potential Chaperone Treatment of Pompe Disease;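 for activity change, negative = inhibition: plate controls were uninhibited enzyme wells for no effect and no-enzyme background for full effect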
Details: purified human GAA, 4-MU-alpha-glucoside fluorescence; activity change, negative = inhibition: at 76.9 µM (top of the series) unless noted
Method in brief: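 Human alpha-glucosidase, 4 nM, pre-mixed with test compounds before 400 uM 4-methylumbelliferyl substrate; 20 min room temperature at pH 5.0. Fluorescence read after pH 10 stop; AC50 values from Hill-equation fits.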
Potency is the fitted concentration of half-maximal effect; tags give direction and shape of the fitted curve.

Activity change, negative = inhibition, inactive:
CCOc1ccc(Cc2n[nH]c(=S)n2N)cc1 3.55%
COc1ccc(N2CCN(C(=O)CSc3nnc(-c4cc5ccccc5cc4O)n3C)CC2)cc1 0.831%
C/C(Cn1nnc([N+](=O)[O-])n1)=N\NC(=O)c1ccccc1 -8.59%
CCOC(=O)c1[nH]c2ccccc2c1NC(=S)Nc1cc(C)ccc1C -0.101% [at 15.4 µM]
O=C(c1ccc(=O)oc1)N1CCC(C(O)(c2ccccc2)c2ccccc2)CC1 2.64%

Activity change, negative = inhibition, inconclusive:
Cc1ccc(-c2oc3ccccc3c(=O)c2OCC(=O)O)cc1 17.6% [activator]
Cc1cccc(NC(=S)NC2CC3CCCC(C2)N3CC(C)C)c1 (centres undefined) -15.2% [inhibitor]
COCC(=O)NNC(=O)Cc1ccc(Cl)cc1 15.5% [activator]
CC(C)OC(=O)/C(C#N)=C/c1ccc(-c2ccc(SC(F)F)cc2)o1 18% [activator]
N/C(=N\N=C\c1ccco1)SC1CC(=O)N(c2ccccc2)C1=O (centres undefined) 16.7% [activator]
CCNC(=O)C1CCCN(c2nc(C)cc(C)n2)C1 (centres undefined) 11.8% [activator]
CCCCC(c1nnnn1C1CCCC1)N1CCN(C2CCCC2)CC1 (centres undefined) -15.3% [inhibitor]
COc1cc(OC)cc(C(=O)N2CCN(C(=O)c3ccc(-c4ccccc4)cc3)CC2)c1 20.6% [activator]
CCOC(=O)c1cnc2ccc(OCC)cc2c1NCCN1CCOCC1 15.7% [activator]
Cc1ccc(C(=O)N/C(=C/c2ccco2)C(=O)Nc2cccc(C)c2)cc1 -15.1% [inhibitor]
Cc1cc(C)n(CCN(C)Cc2nc(Cc3ccccc3F)no2)n1 16.5% [activator]

Potency, inconclusive:
CCOC(=O)c1sc(C(=O)OCC)c(OCCO)c1OCCO 11.2 µM [inhibitor, single point]
CCOc1ccc(N2C(N)=NC(N)=NC2(C)C)cc1 0.316 µM [inhibitor, full curve, poor fit]
COC(=O)c1cccc(N2C(=O)C3CC=CCC3C2=O)c1 (centres undefined) 5.62 µM [inhibitor, single point]
Cn1c(C(=O)OC(C(=O)NC2CCCC2)c2ccncc2)cc2sccc21 (centres undefined) 56.2 µM [inhibitor, single point]
Cc1ccc(NC(=O)CC2SCCNC2=O)cc1Cl (centres undefined) 56.2 µM [inhibitor, single point]
CC(Sc1nnc(COc2ccc([N+](=O)[O-])cc2)n1C)C(=O)O (centres undefined) 56.2 µM [inhibitor, single point]
Cn1nc(-c2ccc(N3CCCCC3)c(NC(=O)c3ccco3)c2)c2ccccc2c1=O 25.1 µM [inhibitor, partial curve]
Cc1cccc(-n2c(=O)[nH]c3c(C(N)=O)nc(C(C)C)nc32)c1 35.5 µM [activator, partial curve]
CCCn1c(-c2ccc(OC)cc2)nc2c(=O)n(C)c(=O)[nH]c21 50.1 µM [inhibitor, single point]
O=C(Cc1c(O)c2ccccc2[nH]c1=O)NCc1ccccc1 6.31 µM [inhibitor, single point]
O=C(CSc1ccccc1C(=O)NCc1ccccc1)NC12CC3CC(CC(C3)C1)C2 0.178 µM [inhibitor, full curve, poor fit]
COc1ccc2cc(/C=N/NC(=O)CN(c3ccccc3)S(=O)(=O)c3ccccc3)c(Cl)nc2c1 35.5 µM [activator, partial curve]
CCOC(=O)c1oc2ccccc2c1CSc1nnc(-c2ccco2)o1 50.1 µM [inhibitor, partial curve]
O=C(CSCc1cnn(-c2ccccc2)c1-n1cccc1)NCc1ccc2c(c1)OCO2 10 µM [inhibitor, full curve]
Fc1ccc(-n2c(-c3ccco3)nc3nc4ccccc4nc32)cc1 7.94 µM [activator, partial curve]
COc1ccc(CCN2CN(S(=O)(=O)c3ccc(OC)cc3)c3nc4ccccc4nc32)cc1 56.2 µM [inhibitor, single point]
Cc1cccc(NS(=O)(=O)c2ccc3c(c2)OCCO3)c1 50.1 µM [inhibitor, single point]
CCN1CCN(CCCNC(=O)c2cn(CCOC)c(=O)c3c2c2ccccc2n3C)CC1 44.7 µM [activator, partial curve, poor fit]
COc1cc(/C=N/NC(=O)c2cccnc2)ccc1OS(=O)(=O)c1cc(C)ccc1C 20 µM [inhibitor, partial curve]
O=C(Nc1ccccc1)c1cc2ccccc2c(=O)s1 0.251 µM [inhibitor, full curve, poor fit]
CN(C)S(=O)(=O)c1ccc(N2CCCC2)c(C(=O)Nc2nc(-c3ccc(F)c(F)c3)cs2)c1 7.94 µM [inhibitor, single point]
O=C(Nc1ccccc1)Nc1ccccc1NS(=O)(=O)c1cccs1 5.62 µM [inhibitor, single point]
O=C(/C=C/c1ccco1)N1CCN(c2ccccc2)CC1 44.7 µM [inhibitor, partial curve, poor fit]
COc1cccc(Nc2nc3ccc(OC)cc3s2)c1 5.01 µM [inhibitor, full curve]
Cc1ccc(C(=O)OC2OC(=O)C(Cl)=C2N2CCOCC2)cc1 (centres undefined) 11.2 µM [inhibitor, single point]
O=C1CC(NCc2ccncc2)C(=O)N1c1ccc(Cl)cc1 (centres undefined) 56.2 µM [inhibitor, single point]
COc1ccc(CCN(Cc2ccccn2)C(=S)Nc2ccccc2Cl)cc1OC 35.5 µM [inhibitor, single point]
Cc1ccccc1OCCC(=O)NCCc1ccc(S(N)(=O)=O)cc1 35.5 µM [inhibitor, single point]
Cn1c(=O)c2cc(S(=O)(=O)NCCC(=O)Nc3ccc(Cl)cc3)ccc2n(C)c1=O 11.2 µM [inhibitor, single point]
CC(C)(C)C(=O)NNC(=O)c1cc2sccc2s1 0.447 µM [inhibitor, full curve, poor fit]
Cc1ccc(NC(=O)c2cc(-c3cccs3)nc3ccccc23)nc1 11.2 µM [activator, single point]
c1ccc2[nH]c(SCc3cn4cccnc4n3)nc2c1 35.5 µM [inhibitor, partial curve]
Cc1ccc(S(=O)(=O)N(C)c2ccc(C(=O)N3CCCCC3)cc2)cc1 8.91 µM [inhibitor, partial curve, poor fit]
CC(=O)Nc1ccc(Nc2nc3c(S(=O)(=O)c4ccc(C)c(C)c4)nnn3c3ccccc23)cc1 20 µM [activator, partial curve]
CCCNC(=O)NC(=O)CSc1cccc(C(F)(F)F)c1 8.91 µM [inhibitor, partial curve]
CN1C(=O)C(O)(CC(=O)c2cccnc2)c2ccccc21 (centres undefined) 12.6 µM [inhibitor, single point]
O=C(Nc1ccc(Cl)c(Cl)c1)Nc1nnc(-c2ccncc2)s1 0.891 µM [activator, full curve]
CC(C)n1nnnc1SCC(=O)NCc1cccs1 0.501 µM [inhibitor, full curve, poor fit]
O=C1CC(c2ccccc2)CC(O)=C1C=NCCc1ccccc1 (centres undefined) 31.6 µM [activator, partial curve, poor fit]
CNC(=O)COC(=O)/C=C/c1cn(-c2ccccc2)nc1-c1ccc2c(c1)OCCO2 35.5 µM [activator, single point]
COC(=O)c1c(C)[nH]c(C)c1-c1ccc([N+](=O)[O-])cc1 35.5 µM [inhibitor, single point]
O=C(O)C1Sc2[nH]c(=O)sc2C2c3ccc(O)cc3OC(=O)C12 (centres undefined) 12.6 µM [activator, partial curve]
Cc1cc2cc(CNC(=O)c3ccc(C)c([N+](=O)[O-])c3)ccc2[nH]1 50.1 µM [inhibitor, single point]
COc1cc(OC)cc(C(=O)N[C@H](C(=O)Nc2ccc(S(=O)(=O)N(C)C)cc2)C(C)C)c1 50.1 µM [inhibitor, single point]
CC(C)(/C=N/NC(=O)CSCc1ccccc1Cl)CCC#N 56.2 µM [inhibitor, single point]
Cc1ccc(NC(=O)CCSc2nc(C)cc(C)n2)cc1 12.6 µM [inhibitor, single point]
CN1CCN(c2ccccc2NC(=O)c2ccc(-c3cccc([N+](=O)[O-])c3)o2)CC1 50.1 µM [inhibitor, single point]
Cc1ccc(OCc2ccc(C(=O)N3CCOCC3)cc2)cc1C 35.5 µM [inhibitor, single point]
